# From publication PMC4336329 (PLoS ONE, 2015)
# In all, about 310,000 compounds went through this assay and about 2,200 (0.71%) showed an effect of 50% or more. Effects have a minus sign here. This is one part of the list.
# Target: human ether-à-go-go-related gene (hERG) potassium channel (human, UniProt Q12809)
# Experiment: primary screen, population patch clamp on CHO cells stably expressing hERG
# Chain of human ether-à-go-go-related gene (hERG) potassium channel (Q12809 whole entry, looked up): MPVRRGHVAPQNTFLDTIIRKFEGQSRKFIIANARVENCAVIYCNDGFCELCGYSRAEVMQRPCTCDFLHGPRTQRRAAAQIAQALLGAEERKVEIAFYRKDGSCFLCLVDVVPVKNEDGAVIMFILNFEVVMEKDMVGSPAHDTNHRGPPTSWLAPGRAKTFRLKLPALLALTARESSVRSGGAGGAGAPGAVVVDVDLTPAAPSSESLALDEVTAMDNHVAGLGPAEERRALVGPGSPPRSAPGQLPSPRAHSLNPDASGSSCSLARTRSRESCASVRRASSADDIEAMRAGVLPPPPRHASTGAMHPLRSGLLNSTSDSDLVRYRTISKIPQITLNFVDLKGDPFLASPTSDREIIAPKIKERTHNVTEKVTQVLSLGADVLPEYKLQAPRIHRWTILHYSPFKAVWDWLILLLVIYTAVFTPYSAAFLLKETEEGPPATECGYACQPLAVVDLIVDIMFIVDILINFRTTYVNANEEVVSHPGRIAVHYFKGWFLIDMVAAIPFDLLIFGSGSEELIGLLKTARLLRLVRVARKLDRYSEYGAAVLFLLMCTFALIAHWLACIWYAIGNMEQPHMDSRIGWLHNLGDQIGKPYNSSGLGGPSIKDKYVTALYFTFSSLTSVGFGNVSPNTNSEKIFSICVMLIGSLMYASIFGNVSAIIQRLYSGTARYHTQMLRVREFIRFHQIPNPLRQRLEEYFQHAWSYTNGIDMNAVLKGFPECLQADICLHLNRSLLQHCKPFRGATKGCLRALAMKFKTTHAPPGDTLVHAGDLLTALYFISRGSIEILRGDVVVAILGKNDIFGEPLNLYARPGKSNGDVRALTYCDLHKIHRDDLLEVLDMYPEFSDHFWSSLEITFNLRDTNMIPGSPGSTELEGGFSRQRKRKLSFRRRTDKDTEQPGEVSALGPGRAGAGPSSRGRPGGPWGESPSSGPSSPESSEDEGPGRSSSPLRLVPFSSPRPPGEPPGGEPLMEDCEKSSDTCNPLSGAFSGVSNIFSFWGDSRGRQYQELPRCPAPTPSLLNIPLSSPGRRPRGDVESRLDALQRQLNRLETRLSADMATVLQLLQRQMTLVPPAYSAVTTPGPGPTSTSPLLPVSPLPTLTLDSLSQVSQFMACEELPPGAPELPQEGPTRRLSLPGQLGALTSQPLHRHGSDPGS
row,Structure (SMILES),"hERG current change (%, negative = inhibition) at 1uM [%]"
1,COc1ccc(CN2C(=O)CCC(C(=O)O)C2c2ccccc2)cc1 (stereo not shown),25.5
2,O=C(C/C=N/OCc1ccc(Cl)cc1Cl)c1ccc(Cl)cc1,14.8
3,Cc1nc2ccc(C(=O)Nc3ccccc3Cl)cc2s1,11.3
4,CCN(CC)S(=O)(=O)c1ccc(N2CCCC2)c(NC(=O)C2CSC3(C)CCC(=O)N23)c1 (stereo not shown),5.79
5,O=C(O)CCC(=O)N1N=C(c2cccs2)CC1c1cn(-c2ccccc2)nc1-c1ccccc1 (stereo not shown),1.74
6,O=C(/C=C/c1ccccc1)CC(O)(c1ccccc1)C(F)(F)C(F)F (stereo not shown),12.4
7,CCCOC(=O)c1[nH]c2c(c1C)C(=O)CC(c1ccc(OC)c(OC)c1)C2 (stereo not shown),1.81
8,S=c1[nH]nc(Cn2nnc3ccccc32)n1-c1ccc(Cl)cc1,8.81
9,CCCc1cc2c(cc1NC(=O)c1ccc(C)cc1)OCO2,1.44
10,OCc1ccc(OCCCOc2cccc3cccnc23)cc1,11.7
11,CC(=O)Nc1cc(C(=O)N2CCCC2)ccc1Sc1ccc(C)cc1,-17.8
12,CCOCCCNC(=O)c1cn(CC)c2ccc(S(=O)(=O)N(C)C3CCCCC3)cc2c1=O,11.3
13,Cc1cc(NC(=O)Nc2cc(F)ccc2C)n(C)n1,13.6
14,COc1ccccc1N1CCN(S(=O)(=O)c2cccc(F)c2)CC1,15
15,COc1ccc(CC(C)N2CCN(Cc3ccccc3)CC2)c(OC)c1 (stereo not shown),-36.6
16,COc1ccc(CC2SC(=Nc3ccc(F)cc3)NC2=O)cc1 (stereo not shown),12.1
17,CCCSc1nnc(-c2ccccc2N)c(=O)[nH]1,6.68
18,CC(=O)CCSc1nnc(-c2cccc(S(=O)(=O)N3CCOCC3)c2)o1,9.82
19,Cc1ccccc1NC(=S)NCC1CCN(C(C)c2ccccc2)C1 (stereo not shown),10.9
20,CNS(=O)(=O)c1cc(NC(=O)c2cncn2-c2ccccc2)ccc1C,6.11
21,CC(C)n1cc(C(N)=S)c(=O)n(Cc2ccccc2)c1=O,12.5
22,Cc1nn(C)cc1/C=N\NC(=O)Cc1ccc([N+](=O)[O-])cc1,-1.5

row,Structure (SMILES),"hERG current change (%, negative = inhibition) at 1uM [%]"
1,COc1cccc(C(=O)Nc2cc(NC(=O)c3cccs3)ccc2C)c1,8.92
2,Nc1ncnc2c1nc(Sc1ccc(Cl)cc1)n2[C@@H]1O[C@@H]2COP(=O)([O-])O[C@H]2[C@H]1O.[Na+],3.93
3,COc1ccc(Cn2c(=O)[nH]c3cc(C(=O)NCCCN4CCCCCC4)ccc3c2=O)cc1,10.8
4,Cc1ccc(S(=O)(=O)N2CCCC2)cc1C(=O)NCCOc1ccccc1,8.99
5,Cc1ccc(-c2noc(COc3ccccc3C)n2)cc1,13.3
6,O=C(NC12CC3CC(CC(C3)C1)C2)c1cc(F)c(F)c(F)c1F,22.8
7,O=C(Nc1ccc(C(=O)N2CCN(c3ccc(Cl)cc3)CC2)cc1)C1=CSCCO1,10.9
8,COc1cc2ccccc2cc1C(=O)N1CC(C)CC(C)C1 (stereo not shown),-3.89
9,CC1(C)CC(=O)C(C=NCCN2CCN(C(=O)c3ccc(F)cc3)CC2)=C(O)C1,11.4
10,CCC(C)(C)n1nnnc1CN1CCC(n2c(C)nc3cc(C(F)(F)F)ccc32)CC1,2.56
11,CN(C(=O)COc1ccc(Cl)cc1Cl)c1nnc(C23CC4CC(CC(C4)C2)C3)s1,13.2
12,O=C(CSc1ccccn1)Nc1ccc(F)c([N+](=O)[O-])c1,11
13,COC(=O)C(Cc1c[nH]c2ccccc12)NC(=O)c1cccs1 (stereo not shown),14
14,CC(Oc1ccccc1)C(=O)Nc1nnc(S(=O)(=O)N2CCCCC2)s1 (stereo not shown),11.5
15,Cc1[nH]c2ccccc2c1CCNS(=O)(=O)c1ccc(S(N)(=O)=O)cc1,9.54
16,CCOC(=O)c1c(-c2ccccc2)nc2ccccn12,10.5
17,COc1ccc(CN2CCN(CCc3ccccc3)C(CCO)C2)c(Cl)c1OC (stereo not shown),-28.1
18,Cc1cccc(C(=O)OCC(=O)N2CCCC2=O)c1O,3.33
19,CCN(CC)C(=O)c1[nH]cnc1C(=O)N[C@@H](CCCCNC(=O)OC(C)(C)C)C(=O)OC(C)(C)C,11.4
20,CCc1ccc(N(C(=O)c2csnn2)C(C(=O)NC2CCCCC2)c2cccnc2)cc1 (stereo not shown),11.3
21,N#CCCCSC1=C(C#N)C(c2ccccc2Cl)CC(=O)N1 (stereo not shown),-11.5
22,COc1ccc(CCNC(=S)NC(=O)c2ccccc2)cc1C,11.1

row,Structure (SMILES),"hERG current change (%, negative = inhibition) at 1uM [%]"
1,COc1cc(C(=O)Nc2cccc(S(=O)(=O)N3CCCC3)c2)c([N+](=O)[O-])cc1OC,9.55
2,COc1ccc(N2CCN(S(=O)(=O)c3ccc(Br)s3)CC2)cc1,-3.97
3,Cc1oc(-c2cccc(Cl)c2)nc1CS(=O)(=O)CC(=O)NC1CCCC1,11.2
4,O=C(c1ccco1)N1CCN(Cc2nc3cc(Cl)ccc3c(=O)[nH]2)CC1,-43.5
5,O=C1COc2ccc(S(=O)(=O)N3CCN(c4ccccc4F)CC3)cc2N1,7.78
6,COC(=O)c1cccc(NC(=S)Nc2cccc(Cl)c2C)c1,12.3
7,CCOc1cccc2c1OC1(C)CC2NC(=O)N1c1cccc(Cl)c1 (stereo not shown),6.42
8,O=C(COC(=O)c1nc(Cl)ccc1Cl)Nc1ccc(Cl)cc1,10.7
9,COc1ccc(NC(=O)COC(=O)c2ccc3c(c2)OCCO3)cc1OC,8.96
10,CC(C)Cn1cnc2c(c1=N)C(c1ccccc1)C1=C(CC(C)(C)CC1=O)O2 (stereo not shown),-10.7
11,COc1ccc(/C=N/NC(=O)c2cccnc2)cc1CSc1nc2ccccc2s1,3.79
12,CCOC(=O)Cc1csc(NC(=O)CSc2nnc(-n3nc(C)cc3C)c3ccccc23)n1,-21
13,O=C(NCc1cccc(C(F)(F)F)c1)C1CCCN(c2ncccn2)C1 (stereo not shown),-7.15
14,CC(C(=O)Nc1ccc(N(C)C)cc1)N1C(=O)c2ccccc2S1(=O)=O (stereo not shown),12.7
15,C[C@@]12CC(=O)NC1N(C(=O)c1cccc(C(F)(F)F)c1)C(c1ccccc1O)C2 (stereo partly shown),17.4
16,COc1cccc(N2CCN(C(=O)c3cc4ccc(OC)cc4[nH]3)CC2)c1,16
17,CN1C[C@@H]2C[C@@H](c3cccn3-c3ccccn3)N3CCC[C@@]23C1=O,-11.6
18,Cc1ccccc1CN1CCNC(=O)C1CC(=O)NCCC1=CCCCC1 (stereo not shown),10.6
19,Cc1cccc(NC(=O)/C(C#N)=C\c2ccc(C(=O)O)cc2)c1,2.84
20,COc1ccc(-c2cc(C(=O)N3CCCCC3)no2)cc1OC,17.5
21,COc1ccc(NC(=O)CN(C)S(=O)(=O)c2cnc[nH]2)cc1Cl,5.27
22,COc1ccccc1NC(=O)CN(Cc1ccco1)C(=O)c1ccc(Cl)nc1,4.49

row,Structure (SMILES),"hERG current change (%, negative = inhibition) at 1uM [%]"
1,CCOC(=O)C(C)OC(=O)C1=C(C)NC(=O)NC1c1ccc2c(c1)OCO2 (stereo not shown),7.26
2,O=S1(=O)OCCC(c2ccccc2)N1Cc1ccccc1 (stereo not shown),5.74
3,CCOC(=O)C1CCN(Cc2ccc(Cl)c(Cl)c2)CC1,9.26
4,CC(Nc1ccc2c(c1)OCCO2)C(=O)Nc1ccc2c(c1)OCO2 (stereo not shown),13.8
5,COc1ccc(CCc2nnc(CCC(=O)NCC3CCCO3)o2)cc1 (stereo not shown),15.2
6,O=[N+]([O-])c1ccccc1S(=O)(=O)N1CCN(c2ccccn2)CC1,14.7
7,NC(=O)c1ccccc1OCC(=O)N1CCc2ccccc2C1,6.64
8,COc1ccc(C(=O)Nc2cccc(/C=C(\CCC(=O)O)c3nc4ccccc4s3)c2)cc1,5.81
9,CCC(=O)NC(=S)Nc1cccc(NC(=O)c2ccccc2C)c1,22.9
10,Cc1c(Cl)c(C(F)(F)F)nn1CC(=O)N1CCSCC1,6.45
11,CCOC(=O)Cc1csc(SCC(=O)Nc2nccs2)n1,4.1
12,O=C(NCc1cccnc1)c1ccc(Br)s1,3.57
13,O=C(NCCc1ccccc1)c1ccc2c(=O)[nH]c3c(C(=O)NCC4CCCO4)sc(=S)n3c2c1 (stereo not shown),14
14,CC(C)c1ccc(-c2c(C#N)c(N)nc(SCC(=O)N3CCCCCC3)c2C#N)cc1,8.31
15,COC(=O)c1ccc(NC(=O)CSc2nnc(C)n2CC2CCCO2)cc1 (stereo not shown),5.53
16,CCCC(=O)NCc1ccncc1,14.5
17,CC(C)c1ccc(S(=O)(=O)NC2CCCC2)cc1,9.53
18,CC(=O)c1ccc(N2CCN(C(=S)Nc3ccccc3F)CC2)cc1,15.2
19,Cc1ccc(S(=O)(=O)NCCCCCC(N)=O)cc1,2.58
20,Cc1cccn2c(=O)c3cc(C#N)c(=NC(=O)c4ccccc4)n(Cc4ccco4)c3nc12,-4.91
21,CCCc1cc(=O)oc2cc(C)cc(OCC(=O)Nc3ccc(CN4CCOCC4)cc3)c12,10.4
22,O=C(CCCn1c(=O)oc2ccccc21)N1CCc2ccccc2C1,-4.21
